# Results taken from PubChem BioAssay AID624255 (Broad Institute, 2012).
# Among all 77,000 compounds or so, about 4,600 (6%) were called active. The shares of active, inactive and inconclusive entries below differ from those in the screen.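 Rule for the calls: active = mean inhibition above about 93%, with at least 55% of replicates each passing it (limit read from the data, passing the limit was not always enough); inconclusive = only one of those two conditions holds; inactive = neither condition holds.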
# Assay: T. cruzi intracellular proliferation inhibitors, primary screen, cell-based, beta-gal Tulahuen parasites, NIH3T3 host, luminescence (AID 624255)
# Settings: T. cruzi beta-gal in NIH3T3, GalScreen luminescence, 90 h; at 8.34 µM; hits give high values
row,SMILES,inhibition
1,CCC(=O)N1CC[C@@H]2[C@H]1c1cc(-c3ccc(F)cc3)ccc1N(C)[C@H]2CO,active: 106%
2,C[C@@H]1CN([C@@H](C)CO)C(=O)c2ccccc2-c2ccccc2CO[C@@H]1CN(C)Cc1ccncc1,inconclusive: 97.7%
3,C[C@@H]1CN([C@H](C)CO)C(=O)Cc2cc(NC(=O)c3ccncc3)ccc2O[C@H]1CN(C)Cc1ccc(Oc2ccccc2)cc1,active: 105%
4,CC(C)CC#Cc1ccc2c(c1)O[C@@H](CN(C)CC1CC1)[C@@H](C)CN([C@@H](C)CO)S2(=O)=O,active: 111%
5,C[C@@H]1CN([C@@H](C)CO)C(=O)c2c(c3ccccc3n2C)-c2ccccc2CO[C@@H]1CN(C)S(=O)(=O)c1cn(C)cn1,inconclusive: 95.9%
6,Cc1ccc(S(=O)(=O)N(C)C[C@H]2OCc3cnnn3CCCC(=O)N([C@H](C)CO)C[C@@H]2C)cc1,inactive: -57.6%
7,C[C@H](CO)N1C[C@H](C)[C@H](CN(C)C(=O)C2CCC2)Oc2cc(C#CCN(C)C)ccc2S1(=O)=O,inconclusive: 95.4%
8,C/C=C/c1ccc2c(c1)O[C@H](CN(C)Cc1ccc(F)cc1)[C@H](C)CN([C@H](C)CO)S2(=O)=O,inconclusive: 95.7%
9,C[C@@H]1CN([C@H](C)CO)S(=O)(=O)c2ccc(/C=C/c3ccccc3)cc2O[C@@H]1CN(C)C(=O)c1ccccc1,active: 123%
10,CCC(=O)N(C)C[C@@H]1Oc2ncc(/C=C/c3ccccc3)cc2C(=O)N([C@H](C)CO)C[C@@H]1C,inactive: 16.1%
11,COc1ccc(CN(C)C[C@@H]2OCCCC[C@H](C)Oc3ccc(NC(=O)Nc4ccccc4)cc3C(=O)N([C@H](C)CO)C[C@@H]2C)cc1,active: 114%
12,COc1ccc(S(=O)(=O)N(C)C[C@H]2OCCCC[C@H](C)Oc3ccc(NC(=O)Cc4ccccc4)cc3C(=O)N([C@@H](C)CO)C[C@@H]2C)cc1,inconclusive: 86.1%
13,CCC(=O)Nc1ccc2c(c1)C(=O)N(C)C[C@H](OC)[C@H](C)CN(C(=O)c1cccnc1)[C@@H](C)CO2,inactive: 13.8%
14,CCCC#Cc1ccc([C@@H]2[C@H](CO)N3CCCCN(C(=O)NC4CCCC4)C[C@@H]23)cc1,inconclusive: 93.1%
15,C[C@H]1CN([C@@H](C)CO)S(=O)(=O)c2ccc(C#CCN(C)C)cc2O[C@@H]1CN(C)Cc1ccccc1F,active: 110%
16,O=C(NCC[C@H]1CC[C@H](NS(=O)(=O)c2cccc(Cl)c2)[C@@H](CO)O1)c1cnccn1,active: 144%
17,C[C@@H]1CN([C@H](C)CO)C(=O)c2cc(C#CCC3CCCC3)cnc2O[C@H]1CN(C)C(=O)CC1CC1,inconclusive: 96.3%
18,COc1ccc(S(=O)(=O)N2C[C@H](O)COC[C@H]3O[C@@H](CC(=O)N[C@H]4CCN(Cc5ccccc5)C4)CC[C@@H]32)cc1,inconclusive: 101%
19,C[C@@H]1CN([C@H](C)CO)S(=O)(=O)c2ccc(C#CC3CC3)cc2O[C@@H]1CN(C)C(=O)Cc1ccncc1,inconclusive: 96.7%
20,C[C@@H]1CN([C@H](C)CO)C(=O)c2cc(N(C)C)ccc2O[C@@H](C)CCCCO[C@@H]1CN(C)Cc1ccc(C(F)(F)F)cc1,inconclusive: 101%

row,SMILES,inhibition
1,C[C@@H]1CN([C@@H](C)CO)S(=O)(=O)c2ccc(Br)cc2O[C@H]1CN(C)Cc1cccc(F)c1,inconclusive: 107%
2,CC(C)CC#Cc1ccc2c(c1)O[C@H](CN(C)C(=O)c1ccccc1F)[C@H](C)CN([C@@H](C)CO)S2(=O)=O,inconclusive: 105%
3,CC(C)NC(=O)Nc1ccc2c(c1)C(=O)N([C@@H](C)CO)C[C@@H](C)[C@H](CN(C)C(=O)NC1CCCCC1)OCCCC[C@@H](C)O2,active: 96.8%
4,CCCC#Cc1ccc2c(c1)O[C@H](CN(C)S(=O)(=O)c1cccc(F)c1)[C@H](C)CN([C@H](C)CO)S2(=O)=O,active: 122%
5,O=C(c1cnccn1)N1CC[C@@H]2[C@H]1c1cc(-c3cccc(F)c3)ccc1N[C@@H]2CO,active: 101%
6,COCC(=O)N1[C@H](CO)[C@@H](c2ccc(C3=CCCCC3)cc2)[C@@H]1C#N,inconclusive: 97.7%
7,C[C@H](CO)N1C[C@H](C)[C@H](CN(C)Cc2cccc(C(=O)O)c2)Oc2cc(C3=CCCCC3)ccc2S1(=O)=O,inactive: 50.4%
8,O=C(Nc1ccccc1)N1CCCCN2[C@H](C1)[C@H](c1ccc(C#Cc3ccccc3)cc1)[C@@H]2CO,active: 106%
9,COc1ccc(S(=O)(=O)N(C)C[C@@H]2Oc3ccc(NC(=O)Nc4ccc(C(F)(F)F)cc4)cc3C(=O)N([C@@H](C)CO)C[C@@H]2C)cc1,inconclusive: 117%
10,C[C@H](CO)N1C[C@H](C)[C@H](CN(C)CC2CCCCC2)OCCCC[C@H](C)Oc2ccc(NC(=O)Nc3ccccc3)cc2C1=O,inconclusive: 99.9%
11,C[C@H](CO)N1C[C@H](C)[C@@H](CN(C)S(=O)(=O)c2ccc(C#N)cc2)OCc2ccccc2-c2c(n(C)c3ccccc23)C1=O,inconclusive: 95.3%
12,C[C@@H]1CN([C@@H](C)CO)C(=O)c2cc(NC(=O)c3ccccc3)ccc2O[C@@H](C)CCCCO[C@H]1CN(C)C(=O)c1ccccc1,inconclusive: 98.3%
13,C[C@@H]1CN([C@H](C)CO)C(=O)c2cccc(NC(=O)c3nc4ccccc4s3)c2O[C@H]1CN(C)Cc1ccc(C(=O)Nc2ccccc2N)cc1,active: 104%
14,CCCN(C)C[C@H]1Oc2cc(-c3cccc(OC)c3)ccc2S(=O)(=O)N([C@H](C)CO)C[C@H]1C,inactive: 58.9%
15,O=C(CN1CCOCC1)NCC[C@@H]1CC[C@H](NC(=O)Nc2ccc(F)cc2)[C@H](CO)O1,inactive: -28.4%
16,C[C@@H]1CCCCO[C@H](CN(C)Cc2ccc3c(c2)OCO3)[C@@H](C)CN([C@H](C)CO)C(=O)c2cc(NC(=O)Nc3ccc4c(c3)OCO4)ccc2O1,inconclusive: 95.1%
17,C/C=C/c1ccc([C@H]2[C@@H](C#N)N(c3nc(CC)cs3)[C@@H]2CO)cc1,inconclusive: 95.4%
18,COc1ccc(C#Cc2ccc3c(c2)[C@H]2[C@H](CCN2C(=O)CN2CCOCC2)[C@H](CO)N3C)cc1,active: 98.6%
19,C[C@@H]1CCCCO[C@H](CN(C)CC2CCCCC2)[C@H](C)CN([C@H](C)CO)C(=O)c2cc(NC(=O)Nc3ccccc3)ccc2O1,inconclusive: 95.6%
20,N#C[C@@H]1[C@@H](c2ccc(C3=CCCCC3)cc2)[C@H](CO)N1C(=O)NC1CCCCC1,active: 97.5%

row,SMILES,inhibition
1,COc1ccc(S(=O)(=O)Nc2cccc3c2O[C@@H](CN(C)S(C)(=O)=O)[C@@H](C)CN([C@H](C)CO)C3=O)cc1,inactive: 8.59%
2,O=C(C[C@H]1C[C@@H]2c3cc(NC(=O)Nc4ccc(C(F)(F)F)cc4)ccc3O[C@@H]2[C@H](CO)O1)NCc1ccc(Cl)cc1,inconclusive: 98.4%
3,N#Cc1ccc(-c2ccc([C@@H]3[C@H](CO)N4CCCCN(S(=O)(=O)c5ccccc5)C[C@@H]34)cc2)cc1,inconclusive: 95.3%
4,C[C@@H]1CN([C@H](C)CO)S(=O)(=O)c2ccc(C#CCC3CCCC3)cc2O[C@@H]1CN(C)C,inactive: -16.5%
5,COc1cccc(-c2ccc3n(c2=O)C[C@H]2[C@H](CO)[C@@H](C(=O)N(C)C)N(C(=O)C4CC4)[C@@H]32)c1,inactive: -73.6%
6,C[C@@H]1CN([C@H](C)CO)S(=O)(=O)c2ccc(C#CC3CCCC3)cc2O[C@@H]1CN(C)S(C)(=O)=O,inactive: 110%
7,COc1ccc(C#Cc2cnc3c(c2)C(=O)N([C@@H](C)CO)C[C@@H](C)[C@H](CN(C)C(=O)Nc2cccc(OC)c2)O3)cc1,inconclusive: 78.9%
8,COc1ccc(CN(C)C[C@H]2OCCCC[C@H](C)Oc3ccc(NC(=O)Nc4ccc(OC)cc4)cc3C(=O)N([C@H](C)CO)C[C@H]2C)cc1,active: 106%
9,CCCC(=O)Nc1ccc2c(c1)OC[C@@H](C)N(C(=O)c1ccccc1F)C[C@H](C)[C@H](OC)CN(C)C2=O,inactive: -10.3%
10,C[C@H](CO)N1C[C@H](C)[C@H](CN(C)Cc2ccc(Oc3ccccc3)cc2)Oc2ccc(NC(=O)Cc3ccccc3)cc2C1=O,inconclusive: 95.9%
11,Cc1cccc(S(=O)(=O)N2CCCCN3[C@H](CO)[C@@H](c4ccc(C#CC(C)C)cc4)[C@H]3C2)c1,inconclusive: 100%
12,COc1cccc(C(=O)N2C[C@H]3[C@@H](c4ccccc42)[C@@H](CO)N3C(=O)c2cccc(F)c2)c1,inactive: -1.63%
13,CCCC#Cc1ccc2c(c1)O[C@@H](CN(C)Cc1ccccn1)[C@@H](C)CN([C@H](C)CO)S2(=O)=O,inconclusive: 96.9%
14,CCCC(=O)Nc1ccc2c(c1)OC[C@@H](C)N(Cc1ccc(F)cc1)C[C@@H](C)[C@@H](OC)CN(C)C2=O,inconclusive: 37.3%
15,COc1ccccc1NC(=O)N1CC[C@@H]2[C@H]1c1cc(-c3ccc(F)cc3)ccc1N(C)[C@@H]2CO,active: 112%
16,Cc1cccc(-c2ccc([C@H]3[C@H]4CN(CCC(F)(F)F)CCCCN4[C@H]3CO)cc2)c1,inconclusive: 98.5%
17,COc1ccc(C#Cc2ccc3c(c2)O[C@@H](CN(C)C(=O)NC2CCCCC2)[C@@H](C)CN([C@H](C)CO)S3(=O)=O)cc1,inconclusive: 107%
18,O=C(Nc1ccc(Cl)cc1)N[C@H]1CC[C@@H](CCn2cc(-c3ccccc3F)nn2)O[C@H]1CO,active: 154%
19,C[C@H]1CCCCO[C@@H](CN(C)C(=O)Nc2ccc(C(F)(F)F)cc2)[C@@H](C)CN([C@@H](C)CO)C(=O)c2cc(N(C)C)ccc2O1,inconclusive: 95.6%
